# Results: PubChem BioAssay (Tox21)
# Several values for one entry are separate records, joined by “and”; a condition that tells them apart may be missing. Equal values may be shown once. The inconclusive results got no clear call from the source; some entries with a clear call stand among them for comparison. For some of these results: Where the call is inconclusive, the potency comes from a doubtful curve fit. Activity calls are given as the source filed them. Unless noted, the call rests on the fitted dose curve; in most records, active means well fitted curve in the direction sought with a large enough effect in the repeat runs; inconclusive means weak or mixed curves; inactive means no such curve, though single readings can be large; an effect the other way counts as inactive or inconclusive.
# Columns and labels:
# [1] = qHTS assay for small molecule agonists of the antioxidant response element (ARE) signaling pathway (AID 743202; active means well fitted activation curve with a large enough effect in the signal ratio in the repeat runs, not every such curve was filed as active; inconclusive means weak or mixed curves, or effect the other way; inactive means no such curve, though single readings can be large or run the other way; the % refers to the signal ratio; further: on the % scale 0 is the no-effect control and ±100 the full control effect); conditions: HepG2 ARE-bla reporter, beta-lactamase FRET, 16 h; activation: at 73.3 µM (top of the series) unless noted
# Outline: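 Agonist mode reporter screen: HepG2 cells with ARE-controlled beta-lactamase are incubated with test compounds for 16 h at 37 C, and beta-lactamase activity is measured as fluorescence of cleaved B/G FRET substrate.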
# [2] = qHTS assay to identify small molecule antagonists of the progesterone receptor (PR) signaling pathway - cell viability counter screen (AID 1346798); further: nearly all actives have a fitted effect of over 50% in size; further: potency means the concentration at half of the fitted maximal effect
# Outline: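 HEK293T PR-UAS-bla, 2% charcoal-stripped FBS; 4 hr pre-plate; cpd + R5020, 16 h 37C; LiveBLAzer read first; then CellTiter-Glo 30 min RT, luminescence.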
# [3] = qHTS assay to identify small molecule agonists of the progesterone receptor (PR) signaling pathway - cell viability counter screen (AID 1346799; calls by dose curve; further: nearly all actives have a fitted effect of over 45% in size; further: potency means the concentration at half of the fitted maximal effect)
# Outline: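 Luminescence from CellTiter-Glo, added after the beta-lactamase FRET read in the same wells, gave cytotoxicity in PR-UAS-bla HEK293T cells treated with compounds for 16 hr at 37C.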
# [4] = target: Cytochrome P450 2D6 (Homo sapiens) (UniProt P10635); test: Cytochrome P450 Family 2 Subfamily D Member 6 (CYP2D6) small molecule antagonists: luciferase reporter qHTS assay (AID 1671196); further: potency means the concentration at half of the fitted maximal effect; nearly all actives have a fitted effect of over 50% in size
# Chain of UniProt P10635 (P10635 whole entry, looked up): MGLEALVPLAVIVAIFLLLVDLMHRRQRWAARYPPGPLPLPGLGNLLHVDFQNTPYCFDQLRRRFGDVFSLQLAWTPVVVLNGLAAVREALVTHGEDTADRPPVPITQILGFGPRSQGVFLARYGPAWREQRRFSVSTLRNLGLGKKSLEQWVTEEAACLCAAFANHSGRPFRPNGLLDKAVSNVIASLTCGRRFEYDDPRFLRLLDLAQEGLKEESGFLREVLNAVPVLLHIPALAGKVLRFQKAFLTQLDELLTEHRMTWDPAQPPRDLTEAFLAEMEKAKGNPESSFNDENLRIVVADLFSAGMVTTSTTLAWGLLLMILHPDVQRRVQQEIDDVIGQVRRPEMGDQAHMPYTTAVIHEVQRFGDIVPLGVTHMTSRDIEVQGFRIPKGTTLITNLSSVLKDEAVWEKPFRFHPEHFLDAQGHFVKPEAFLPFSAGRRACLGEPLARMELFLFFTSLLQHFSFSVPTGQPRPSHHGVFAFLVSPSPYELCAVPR
# Outline: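 Luminescence (RLU), read 20 min after detection reagent, indicated CYP2D6 conversion of proluciferin to luciferin during a 1 h NADPH-dependent reaction at room temperature.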
# [5] = target: Cytochrome P450 1A2 (Homo sapiens) (UniProt P05177); test: Cytochrome P450 Family 1 Subfamily A Member 2 (CYP1A2) small molecule antagonists: luciferase reporter qHTS assay (AID 1671199); further: nearly all actives have a fitted effect of over 50% in size; further: potency means the concentration at half of the fitted maximal effect
# Chain of UniProt P05177 (P05177 whole entry, looked up): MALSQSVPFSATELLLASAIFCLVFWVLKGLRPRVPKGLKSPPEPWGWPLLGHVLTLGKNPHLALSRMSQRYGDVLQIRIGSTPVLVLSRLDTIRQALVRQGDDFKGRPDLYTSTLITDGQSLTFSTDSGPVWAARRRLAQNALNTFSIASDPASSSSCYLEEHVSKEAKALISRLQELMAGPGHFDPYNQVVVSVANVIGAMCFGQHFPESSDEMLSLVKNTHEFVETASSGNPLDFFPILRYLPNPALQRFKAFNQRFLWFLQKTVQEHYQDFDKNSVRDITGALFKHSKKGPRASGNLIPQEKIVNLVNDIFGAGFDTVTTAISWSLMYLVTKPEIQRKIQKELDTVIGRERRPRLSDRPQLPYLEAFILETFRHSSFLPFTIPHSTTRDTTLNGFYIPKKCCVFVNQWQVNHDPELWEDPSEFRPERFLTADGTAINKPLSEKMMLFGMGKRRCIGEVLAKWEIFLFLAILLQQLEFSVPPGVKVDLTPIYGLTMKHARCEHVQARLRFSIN
# Outline: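 CYP1A2 turnover of a luminogenic substrate was quantified after 1 h with NADPH regeneration at room temperature. Furafylline served as positive control.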
# [6] = qHTS assay to identify small molecule agonists of the RXR signaling pathway - cell viability counter screen (AID 1159529); further: potency means the concentration at half of the fitted maximal effect; nearly all actives have a fitted effect of over 50% in size
# Outline: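 HEK 293T RXRa-bla cells, 2% CS-FBS; 5 h settle; cpd 16 h 37 C, 5% CO2; CellTiter-Glo 30 min RT, luminescence. Tetraoctyl ammonium bromide as positive control.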
# [7] = qHTS assay for small molecule disruptors of the mitochondrial membrane potential (AID 720635); conditions: HepG2 mitochondrial membrane potential, Mito-MPS dye ratio; further: on the % scale 0 is the no-effect control and ±100 the full control effect
# Outline: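 HepG2 cells exposed to compound 1 hr at 37C, then Mito-MPS dye 30 min. Ratio read of aggregate (540/590 nm) versus monomer (490/535 nm) fluorescence.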
# [8] = qHTS assay to identify small molecule antagonists of the thyroid receptor (TR) signaling pathway - cell viability counter screen (AID 743064); conditions: GH3.TRE-Luc viability, CellTiter-Fluor, 24 h; activity change, negative = cytotoxic: at 70.3 µM (top of the series) unless noted
# Outline: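 Fluorescence from CellTiter-Fluor, added after 23.5 h exposure at 37 °C, reported viability of GH3.TRE-Luc cells co-treated with compound and 1 nM T3. Measured in the same wells as the luciferase TR readout.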
# [9] = qHTS assay to identify small molecule antagonists of the peroxisome proliferator-activated receptor delta (PPARd) signaling pathway - cell viability counter screen (AID 743213); conditions: PPARd-bla HEK293H viability, CellTiter-Glo luminescence, 17 h; viability change, negative = cytotoxic: at 62 µM (top of the series) unless noted; further: nearly all actives have a fitted effect of over 50% in size; further: potency means the concentration at half of the fitted maximal effect; on viability change, negative = cytotoxic: on the % scale 0 is the no-effect control and ±100 the full control effect
# Outline: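 HEK293H PPARd UAS-bla cells, 5 h pre-incubation, compound + L165041 300 nM final, 17 h 37 C; B/G FRET substrate 2 h RT; then CellTiter-Glo 30 min RT, luminescence.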
# [10] = qHTS assay to identify small molecule agonists of the farnesoid-X-receptor (FXR) signaling pathway - cell viability counter screen (AID 743218); conditions: FXR-bla HEK293T viability, CellTiter-Glo luminescence, 16 h; viability change, negative = cytotoxic: at 62.6 µM (top of the series); further: on the % scale 0 is the no-effect control and ±100 the full control effect; nearly all actives have a fitted effect of over 45% in size
# Outline: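 After 16 h at 37 C with test compounds, FXR-bla HEK 293T cells were given LiveBLAzer B/G substrate for 2 h at RT and then CellTiter-Glo; luminescence was taken after 30 min.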
# [11] = qHTS assay to identify small molecule antagonists of the sonic hedgehog signaling (Shh) pathway (AID 1259369; calls by dose curve; further: potency means the concentration at half of the fitted maximal effect; nearly all actives have a fitted effect of over 45% in size)
# Outline: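 Conditioned medium drives Shh signalling in 3T3Gli1-Luc cells; compounds in DMSO co-applied, 24hr at 37 C, then luciferase luminescence.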
# [12] = target: Estrogen receptor beta (Homo sapiens) (UniProt Q92731); test: qHTS assay to identify small molecule antagonists of the estrogen receptor beta (ER-beta) signaling pathway (AID 1259378; active means well fitted inhibition curve with a large enough effect in the signal ratio in the repeat runs, not every such curve was filed as active; inconclusive means weak or mixed curves, or effect the other way; inactive means no such curve, though single readings can be large or run the other way; the % refers to the signal ratio; further: potency means the concentration at half of the fitted maximal effect); conditions: ER-beta-UAS-bla HEK293T, beta-lactamase FRET ratio, 16 h; activity, negative = inhibition: at 92.4 µM (top of the series) unless noted
# Chain of UniProt Q92731 (Q92731 whole entry, looked up): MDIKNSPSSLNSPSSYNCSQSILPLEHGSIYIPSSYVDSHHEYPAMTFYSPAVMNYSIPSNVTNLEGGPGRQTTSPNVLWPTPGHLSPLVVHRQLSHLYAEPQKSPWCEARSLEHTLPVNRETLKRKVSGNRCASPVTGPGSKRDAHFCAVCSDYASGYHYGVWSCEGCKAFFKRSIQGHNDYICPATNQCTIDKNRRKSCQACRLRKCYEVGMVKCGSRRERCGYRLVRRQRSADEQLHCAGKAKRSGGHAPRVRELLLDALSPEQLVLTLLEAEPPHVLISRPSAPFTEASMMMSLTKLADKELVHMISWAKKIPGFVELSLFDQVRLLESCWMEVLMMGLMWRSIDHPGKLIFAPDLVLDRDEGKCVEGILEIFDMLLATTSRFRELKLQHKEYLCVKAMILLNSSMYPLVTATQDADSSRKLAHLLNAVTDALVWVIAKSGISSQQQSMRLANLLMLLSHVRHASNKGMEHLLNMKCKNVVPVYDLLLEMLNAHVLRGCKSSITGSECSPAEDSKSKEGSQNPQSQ
# Outline: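 ER-beta-UAS-bla HEK293T cells in 2% charcoal-stripped FBS medium treated with compound plus 1nM final 17-beta-estradiol for 16 hr at 37C. Beta-lactamase reporter read by FRET substrate fluorescence after 2 hours at room temperature.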
# [13] = target: Progesterone receptor (Homo sapiens) (UniProt P06401); test: qHTS assay to identify small molecule antagonists of the progesterone receptor (PR) signaling pathway (AID 1346795; active means well fitted inhibition curve with a large enough effect in the signal ratio in the repeat runs, not every such curve was filed as active; inconclusive means weak or mixed curves; the % refers to the signal ratio; further: on the % scale 0 is the no-effect control and ±100 the full control effect); conditions: PR-UAS-bla HEK293T, beta-lactamase FRET ratio, 16 h; activity change, negative = inhibition: at 92.4 µM (top of the series) unless noted
# Chain of UniProt P06401 (P06401 whole entry, looked up): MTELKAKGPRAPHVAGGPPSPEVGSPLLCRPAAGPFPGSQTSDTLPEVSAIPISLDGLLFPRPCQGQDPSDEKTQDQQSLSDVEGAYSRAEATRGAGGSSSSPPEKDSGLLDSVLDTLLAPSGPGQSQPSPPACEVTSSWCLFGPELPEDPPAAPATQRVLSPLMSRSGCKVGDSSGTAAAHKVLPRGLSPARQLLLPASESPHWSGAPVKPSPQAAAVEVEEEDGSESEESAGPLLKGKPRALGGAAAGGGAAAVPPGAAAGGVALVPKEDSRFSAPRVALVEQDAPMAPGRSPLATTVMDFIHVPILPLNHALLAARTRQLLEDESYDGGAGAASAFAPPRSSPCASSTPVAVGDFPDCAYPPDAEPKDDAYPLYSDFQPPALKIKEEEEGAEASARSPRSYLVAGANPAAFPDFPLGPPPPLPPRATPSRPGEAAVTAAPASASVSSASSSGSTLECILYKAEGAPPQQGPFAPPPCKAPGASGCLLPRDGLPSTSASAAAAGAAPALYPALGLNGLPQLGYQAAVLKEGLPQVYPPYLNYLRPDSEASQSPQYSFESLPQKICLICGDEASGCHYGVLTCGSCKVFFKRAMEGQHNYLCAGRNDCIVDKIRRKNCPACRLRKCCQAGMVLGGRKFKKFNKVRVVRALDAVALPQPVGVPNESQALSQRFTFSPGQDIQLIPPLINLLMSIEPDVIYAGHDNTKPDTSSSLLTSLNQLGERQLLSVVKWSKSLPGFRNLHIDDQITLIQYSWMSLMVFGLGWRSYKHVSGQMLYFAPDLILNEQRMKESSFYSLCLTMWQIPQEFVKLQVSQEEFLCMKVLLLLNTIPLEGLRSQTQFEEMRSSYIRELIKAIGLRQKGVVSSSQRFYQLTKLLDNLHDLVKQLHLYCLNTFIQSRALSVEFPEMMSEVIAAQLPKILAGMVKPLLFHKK
# Outline: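 Read-out is fluorescence from the LiveBLAzer B/G FRET substrate, cleaved by a UAS-controlled beta-lactamase in PR-UAS-bla HEK293T cells after 16 hr exposure to compound plus 1 nM promegestone (final), followed by 2 hr at room temperature.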
# [14] = qHTS assay for identifying genotoxic compounds that show differential cytotoxicity against isogenic chicken DT40 cell lines with known DNA damage response pathways - Rev3 mutant cell line (AID 743014); conditions: chicken DT40 Rev3-/- viability, CellTiter-Glo, 40 h; activity, negative = cytotoxicity: at 68.4 µM (top of the series); further: potency means the concentration at half of the fitted maximal effect; nearly all actives have a fitted effect of over 55% in size
# [15] = target: Peroxisome proliferator-activated receptor gamma (Homo sapiens) (UniProt P37231); test: qHTS assay to identify small molecule antagonists of the peroxisome proliferator-activated receptor gamma (PPARg) signaling pathway (AID 743191; calls by dose curve; further: on the % scale 0 is the no-effect control and ±100 the full control effect; nearly all actives have a fitted effect of over 30% in size); conditions: HEK293H PPARg-UAS-bla, beta-lactamase ratio, antagonist, 17 h; ratio activity, negative = inhibition: at 62.6 µM (top of the series) unless noted
# Chain of UniProt P37231 (P37231 whole entry, looked up): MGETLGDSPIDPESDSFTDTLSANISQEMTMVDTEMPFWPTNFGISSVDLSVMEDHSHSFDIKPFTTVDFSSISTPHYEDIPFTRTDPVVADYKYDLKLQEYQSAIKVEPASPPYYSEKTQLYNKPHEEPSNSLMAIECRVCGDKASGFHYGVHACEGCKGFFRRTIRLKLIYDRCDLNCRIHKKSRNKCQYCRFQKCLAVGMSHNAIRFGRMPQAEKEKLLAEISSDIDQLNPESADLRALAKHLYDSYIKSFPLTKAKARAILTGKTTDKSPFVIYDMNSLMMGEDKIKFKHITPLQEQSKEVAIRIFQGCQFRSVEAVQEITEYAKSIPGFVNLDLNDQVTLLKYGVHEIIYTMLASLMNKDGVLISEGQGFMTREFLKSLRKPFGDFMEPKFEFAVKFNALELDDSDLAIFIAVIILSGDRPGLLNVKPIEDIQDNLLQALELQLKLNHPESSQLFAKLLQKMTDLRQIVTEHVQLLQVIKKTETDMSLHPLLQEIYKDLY
# Outline: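 GeneBLAzer PPARg UAS-bla HEK293H cells, 5 h post-plating, exposed to compounds 17 h at 37C. LiveBLAzer B/G FRET substrate added for 1 h at room temperature; beta-lactamase reporter read by fluorescence intensity.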
# Tags describe the fitted curve by direction and shape or compound fluorescence and quenching.
smiles,measurement,setting,value
CC(C)(N)Cc1ccccc1Cl,activation,[1],inconclusive: 17.5%
same,Potency,[2],"inconclusive: 13.3 µM [cytotoxic, single point]"
same,Potency,[3],"inconclusive: 2.66 µM [rising, full curve]"
same,Potency,[4],active: 4.36 µM
same,Potency,[5],"inconclusive: 27.5 µM [inhibitor, partial curve, poor fit]"
N#Cc1ccc(O)cc1,Potency,[6],"inconclusive: 0.0014 µM [rising, full curve, poor fit]"
same,Potency,[3],inactive
O=C1Nc2ccc(Cl)cc2C(c2ccccc2)=NC1O (configuration not stated),"ratio activity, negative = MMP loss",[7]; at 83.2 µM (top of the series),inconclusive: 1.02% and inconclusive: 37.1% and inconclusive: -8.46%
same,"ratio activity, negative = MMP loss",[7]; at 95.3 µM (top of the series),inconclusive: 13.2%
same,Potency,[8],"inconclusive: 0.298 µM [rising, single point]"
same,Potency,[9],inactive
same,Potency,[10],inactive
same,Potency,[11],"inconclusive: 9.77 µM [inhibitor, full curve] and inconclusive: 11.6 µM [inhibitor, partial curve]"
same,Potency,[12],"inconclusive: 69.1 µM [rising, single point]"
same,"activity change, negative = inhibition",[13],inconclusive: -34.6%
same,Potency,[2],inactive
CCCOC(=O)Cc1ccc(OCC(=O)N(CC)CC)c(OC)c1,Potency,"[7]; ratio activity, negative = MMP loss: at 83.2 µM (top of the series) unless noted",inactive
same,Potency,[14],"inconclusive: 26.6 µM [cytotoxic, partial curve, poor fit]"
same,Potency,[15],inactive
same,Potency,[9],"inconclusive: 0.0596 µM [cytotoxic, single point]"
same,"activity change, negative = inhibition",[13],inconclusive: 12.2% [at 42.5 µM]
same,Potency,[5],inactive
